Measurements from the supplement of paper PMC11417369.
± gives the standard deviation of the averaged measurements. The list shows a part of the results.

system: PfAP2-I AP2 domain 3 (GST-tagged); test: gcPBM binding intensity (ln(normalized median fluorescence intensity)); higher = stronger DNA binding
How it was run: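 Binding intensity is defined as the maximum Masliner-normalised natural-log median intensity across replicate spots for either probe orientation. It was measured on an Agilent 4 × 180k array of primer-extended double-stranded 36-bp intergenic genomic probes and negative controls, to which GST-tagged P. falciparum DNA-binding domains made in E. coli were applied for 1 h in 1× PBS with 1% milk, 0.2 mg/ml BSA, 0.5% salmon testes DNA and 0.03% Triton X-100. Detection was by Alexa488 anti-GST antibody and scanning at 488 nm.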

Sequence | gcPBM binding intensity (ln)
TACGCGAAATGAATATGTACATATATGAGGGCATAT [XGTACX_site4293] | 8.16 ± 0.54
ACTATTTAAAAATATGGTACACGAAATTCAAGAGAA [XGTACX_site5903] | 8.17 ± 0.57
ATGAATTAACCTAATCGTACAATAAATATTATTATA [XGTACX_site596] | 7.55 ± 0.39
ATATATATATATGTATGTATATATATATGTTTGATT [XGTACX_negctrl_site62] | 9.48 ± 0.41
TTGTTTATGTGAGAAGTGCATTTTTTCGTTCATGTA | 9.07 ± 0.42
AAGTTTTATATTTATTAAATTTTTTTTTTTCCTTTT [XGTACX_negctrl_site184] | 7.18 ± 0.67
TTTTTTATTTTGTTGAAGCAATGAAAATGAATGAAA [TGCATGCA_negctrl_site495] | 8.02 ± 0.28
ATATGTTTAAAAATATGTACGTATTATATATTCTAT [XGTACX_site1358] | 7.94 ± 0.3
ATGTAAGTATAAAATGTGCGCATTGGGAATGAGGAC | 9.22 ± 0.43
TGTAGATATTATATATGTACGCATATGAAATATATA [XGTACX_site1586] | 7.93 ± 0.014
GTAATATCAATATAAAGTACACACTATAGTATGTAT [XGTACX_site4714] | 7.66 ± 0.49
TAATTATATAAATATTGTACAAAAAAAATATATATA [XGTACX_site3137] | 7.86 ± 0.57
AAAATATATAATATAACACACATATATTCTATATGG [CACACA_site4044] | 7.59 ± 0.32
TTCAAAATATATATTTGTACATATAGGATCTTTTTC [XGTACX_site4500] | 7.62 ± 0.43
TCTTTTTTTTTTTTTTTTTTTTTTTTTTTTTTTTTT [GTGCAC_negctrl_site18] | 10.1 ± 0.25
ATAAAACCAACATAGAGTACAGATCGACTATGTTTC [XGTACX_site4329] | 7.42 ± 0.57
TTTTCTTTTTAAATTACACACACATATATATATGTA [CACACA_site9172] | 7.74 ± 0.52
ATTTTAATGACATATACACACAAAGGTTCATAACAA [CACACA_site5664] | 7.7 ± 0.54
TTAACGCTTATTTTTTGTACTTATTTTATTTTAAAT [XGTACX_site3977] | 8.16 ± 0.54
ACTCTATAATAAAATACACACAAGACTATCTAATAT [CACACA_site1796] | 7.81 ± 0.44
CAACATTAATATAAAGCACACATATATATAATATAT [CACACA_site8064] | 9.63 ± 0.56
ATATATACATATAATTGTACTTGTGTTGTTTTTCTT [XGTACX_site1870] | 7.85 ± 0.51
TTTTATTTATAATATATACACACTAACATTATTTAT [CACACA_site1284] | 8.03 ± 0.042

Sequence | gcPBM binding intensity (ln)
GAATATTTATCATGGGGTACCTTAAAAAAGGGAAAA [XGTACX_site298] | 7.89 ± 0.34
ATATCTTAAATTATTTGTACATATATATATATATAT [XGTACX_site8034] | 9.74 ± 0.2
AATATAAACCCAAACACACACATATATATATATATA [CACACA_site268] | 9.4 ± 0.37
TTTTTTTTTTTGAGGAGGACACAAAAATATGCTACC [XGTACX_site756] | 8.32 ± 0.53
AATATAAAAATATAAAAACACACGTAAAAAAATTTA [CACACA_site3399] | 7.63 ± 0.67
TATATTCTTTTAAACAGTACACACACACATATATAT [XGTACX_site1701] | 8.3 ± 0.53
AAAAAAATTAAAAATAAAGAAAAAAAAAAAAAAAAA [GTGCAC_negctrl_site401] | 8.02 ± 0.99
ATCATGAAATATATTTGTACACATAATAATATAATA [XGTACX_site8798] | 7.92 ± 0.23
ATTTGGCAGAAACACACACACACACCCACCCACATA [CACACA_site589] | 8.29 ± 0.52
TTTTTTTTTATAAATACACACGTACGGGTGCATAAC [CACACA_site8444] | 10.9 ± 0.73
TATTAAAAGGTGAGTACACACATATATGTGTATATA [CACACA_site7070] | 7.88 ± 0.099
ATATATATATATATATGTACACAGGACAATAATCCT [XGTACX_site6383] | 9.42 ± 0.35
TAAAAAAATTCATGCACACGAAATAAAAAGCACCTT [CACACA_site4667] | 10.035 ± 0.007
TTTTTTAAAAGATAATATTTTATTAATGTATTCTCA [GTGCAC_negctrl_site598] | 7.2 ± 0.55
AAACATAAATTTTATTGTACATTATATAGAATTTTC [XGTACX_site576] | 7.49 ± 0.43
TTTTCATTTTTTCGTTGTACATAAATAATATATATT [XGTACX_site856] | 8.21 ± 0.59
AATACATACATACATACACACATATATATATATTAT [CACACA_site3575] | 7.99 ± 0.66
TTTTACTATACTTATGCACACAAGATATATACATAT [CACACA_site2968] | 9.31 ± 0.13
CACATGTATTTATAGGTGCGTAAAAACACTTTATAT [GTGCAC_site9501] | 10.2 ± 0.23
ACTAATTACTATAAAACACACATATATTTATTTATA [CACACA_site7263] | 8.03 ± 0.52
TTATAGAAACATTGGTGTACGATATTTACTTCTTTC [XGTACX_site7314] | 7.69 ± 0.49
GGAATAGTCGGGTGCATACACACCTTAAATATAATA [CACACA_site1081] | 10.4 ± 0.54
